Results as given in the antibiotic and cytotoxicity screens of Wong et al. (2023).
The other results are listed elsewhere or left out.

Assays:
HSkMC = human skeletal muscle cells; assay: cytotoxicity call (relative viability < 0.9); conditions: 10 µM
HepG2 = assay: cytotoxicity call (relative viability < 0.9); conditions: 10 µM
S. aureus RN4220 = assay: growth inhibition call (relative growth <= 0.2); conditions: 50 µM

SMILES	cytotoxicity call (HSkMC)	cytotoxicity call (HepG2)	growth inhibition call (S. aureus RN4220)
CC(C)NC(=O)Nc1ccc2c(c1)C(=O)N([C@H](C)CO)C[C@@H](C)[C@H](CN(C)S(=O)(=O)c1cccs1)O2	inactive	inactive	inactive
C[C@@H]1CCCCO[C@H](CN(C)Cc2ccccc2)[C@H](C)CN([C@@H](C)CO)C(=O)c2cc(NS(=O)(=O)c3cccs3)ccc2O1	inactive	inactive	inactive
Cc1ccccc1N1C(=O)c2cc(S(N)(=O)=O)c(Cl)cc2NC1C (stereo not drawn)	inactive	inactive	inactive
C[C@H]1CN([C@@H](C)CO)C(=O)Cc2cc(NC(=O)C3CC3)ccc2O[C@@H]1CN(C)Cc1ccc(Oc2ccccc2)cc1	inactive	inactive	inactive
C[C@H]1CN([C@@H](C)CO)C(=O)c2cc(NC(=O)NC3CCCCC3)ccc2O[C@@H]1CN(C)Cc1ccc(C(F)(F)F)cc1	inactive	inactive	inactive
COc1cc(C(=O)NC2CCCNC2)cc(OC)c1OC (stereo not drawn)	inactive	inactive	inactive
COc1ccc(COC[C@]23N=C4Sc5ccc([N+](=O)[O-])cc5C(=O)N4[C@H](c4ccccc4O2)[C@H]3COC(=O)c2ccccc2)cc1	inactive	inactive	inactive
O=C1O[C@@H](CO)[C@H](O)[C@@H](O)[C@@H]1O	inactive	inactive	inactive
Cc1ccc(S(=O)(=O)Nc2ccc3c(c2)C(=O)N([C@H](C)CO)C[C@H](C)[C@H](CN(C)C(=O)Nc2ccc(F)cc2)OCCCC[C@@H](C)O3)cc1	inactive	inactive	inactive
C[C@@H]1CN([C@@H](C)CO)C(=O)c2cc(NC(=O)Cc3ccccc3)ccc2O[C@H]1CN(C)C(=O)Nc1ccc(C(F)(F)F)cc1	inactive	inactive	inactive
C[C@@H]1CN([C@H](C)CO)C(=O)c2cc(NC(=O)C3CCCCC3)ccc2O[C@@H]1CN(C)S(=O)(=O)c1cn(C)cn1	inactive	inactive	inactive
COc1cc(C(=O)NCCCCCC(=O)O)cc(OC)c1OC	inactive	inactive	inactive
C[C@H](CO)N1C[C@H](C)[C@H](CN(C)S(=O)(=O)c2ccccc2)Oc2ccc(NS(=O)(=O)c3ccc(F)cc3)cc2C1=O	inactive	inactive	inactive
CCC(=O)N[C@@H]1C=C[C@H](CC(=O)OC)O[C@H]1CO	inactive	inactive	inactive
O=C(C[C@H]1CC[C@@H](NS(=O)(=O)c2ccccc2F)[C@H](CO)O1)NCCCN1CCOCC1	inactive	inactive	inactive
COc1ccc(CN(C)C[C@H]2OCCCC[C@H](C)Oc3ccc(NC(=O)C4CCCCC4)cc3C(=O)N([C@@H](C)CO)C[C@H]2C)cc1	inactive	inactive	inactive
C[C@H]1CN([C@@H](C)CO)C(=O)c2cc(NC(=O)Cn3cnnn3)ccc2O[C@H]1CN(C)C(=O)Nc1ccc(F)cc1	inactive	inactive	inactive
C[C@H](CO)N1C[C@H](C)[C@H](CN(C)CC2CCCCC2)Oc2ccc(NC(=O)CCCCCC(=O)Nc3ccccc3N)cc2CC1=O	inactive	inactive	inactive

SMILES	cytotoxicity call (HSkMC)	cytotoxicity call (HepG2)	growth inhibition call (S. aureus RN4220)
C[C@H](CO)N1C[C@H](C)[C@@H](CN(C)C(=O)NC2CCCCC2)Oc2c(NC(=O)Nc3cccc4ccccc34)cccc2C1=O	active	inactive	inactive
CC(=O)OCC(=O)C1(O)CCC2C3CCC4=CC(=O)CCC4(C)C3(F)C(O)CC21C (stereo not drawn)	inactive	inactive	inactive
C[C@@H]1CN([C@H](C)CO)C(=O)c2cc(NS(C)(=O)=O)ccc2O[C@@H]1CN(C)S(=O)(=O)c1ccc(F)cc1	inactive	inactive	inactive
C[C@H]1CN([C@@H](C)CO)C(=O)c2cc(NC(=O)Nc3cccc4ccccc34)ccc2O[C@H]1CN(C)S(=O)(=O)c1ccc(F)cc1	inactive	inactive	inactive
C[C@@H]1CN([C@@H](C)CO)C(=O)c2cc(NC(=O)Nc3ccc(C(F)(F)F)cc3)ccc2O[C@H]1CN(C)S(=O)(=O)c1ccc(F)cc1	inactive	inactive	inactive
COCC#Cc1ccc2c(c1)O[C@@H](CN(C)S(=O)(=O)c1ccc(C)cc1)[C@H](C)CN([C@@H](C)CO)S2(=O)=O	inactive	inactive	inactive
CN([NH2+][O-])C(=O)N[C@@H]1[C@@H](O)[C@H](O)[C@H](CO)O[C@@H]1O	inactive	inactive	inactive
C[C@H]1CN([C@@H](C)CO)C(=O)Cc2cc(NS(=O)(=O)c3ccc(Cl)cc3)ccc2O[C@@H]1CN(C)Cc1ccc(Cl)c(Cl)c1	inactive	inactive	inactive
C[C@H](CO)N1C[C@H](C)[C@@H](CN(C)Cc2ccncc2)OCCCC[C@H](C)Oc2ccc(NC(=O)C3CCCCC3)cc2C1=O	inactive	inactive	inactive
C[C@H](CO)N1C[C@H](C)[C@H](CN(C)C(=O)Nc2ccccc2)Oc2ccc(NC(=O)CCCCCC(=O)Nc3ccccc3N)cc2C1=O	inactive	inactive	inactive
COc1ccc(CN(C)C[C@@H]2Oc3c(NC(=O)Nc4ccc(C(F)(F)F)cc4)cccc3C(=O)N([C@H](C)CO)C[C@@H]2C)cc1	inactive	inactive	inactive
Oc1ccc([C@H]2Oc3cc(O[C@@H]4OC[C@H](O)[C@@H](O)[C@@H]4O)cc(O)c3C[C@@H]2O)cc1O	inactive	inactive	inactive
Cc1ccc(S(=O)(=O)Nc2ccc3c(c2)CC(=O)N([C@@H](C)CO)C[C@H](C)[C@H](CN(C)Cc2ccc(Cl)c(Cl)c2)O3)cc1	active	active	inactive
C[C@H](CO)N1C[C@H](C)[C@@H](CN(C)Cc2ccc(C(=O)O)cc2)Oc2ccc(NC(=O)Cn3cnnn3)cc2C1=O	inactive	inactive	inactive
C[C@@H]1CN([C@@H](C)CO)C(=O)c2cc(NC(=O)Cc3ccccc3)ccc2O[C@@H](C)CCCCO[C@H]1CN(C)Cc1ccncc1	inactive	inactive	inactive
CCN(CC)c1ccc(N2CC=C[C@@]34O[C@@H]5C=CCCOC(=O)[C@@H]5[C@H]3C(=O)N(CCCO)[C@@H]4C2=O)cc1	inactive	inactive	inactive
COc1cc(Cc2cc3c(c(CCc4ccccc4)n2)[Si](C(C)C)(C(C)C)OC3)cc(OC)c1OC	inactive	inactive	inactive
O=C(Nc1ccc(C(F)(F)F)cc1)Nc1ccc2c(c1)[C@H]1C[C@H](CC(=O)N3CCc4ccccc4C3)O[C@@H](CO)[C@H]1O2	inactive	inactive	inactive
